Results taken from the supplement of paper PMC11417369.
± gives the standard deviation of the averaged measurements. The list shows a part of the results.

These sequences were tested on PfAP2-LT AP2 domain (GST-tagged) (assay: gcPBM binding intensity (ln(normalized median fluorescence intensity)); higher = stronger DNA binding).
Outline: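 In this array assay, P. falciparum DNA-binding domains with a GST tag, expressed in E. coli, were applied for 1 h to primer-extended double-stranded 36-bp intergenic genomic probes and negative controls on an Agilent 4 × 180k array. Bound protein was visualised with Alexa488 anti-GST antibody at 488 nm. Binding intensity is the highest Masliner-normalised natural-log median intensity across replicate spots of either probe orientation.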

Going from “ATTTTTAATTGAATCACACATTTCCTTTCTTTTGTG [CACACA_site4438]” to “CATAAAATATAAAACACACACACATATATTTATATA [CACACA_site6247]”, the “gcPBM binding intensity (ln)” value rises from 8.95 ± 0.45 to 9.66 ± 0.19.

“AAATAAAAGTTCACCTGTACACACATATATATATGT [XGTACX_site3513]” and “TTAACATAGATATATACACACCAATGATGGCATTTA [CACACA_site6840]” are within error of each other in “gcPBM binding intensity (ln)” value: 9.41 ± 0.38 for the first, 8.79 ± 0.39 for the second.

First: TTTTTTTTTTTTTAGAGTACACACTTTTTTACATTT [XGTACX_site8159]
Second: TATATATATATATATATACACACTATATAATTCAAA [CACACA_site1023]
The “gcPBM binding intensity (ln)” value of the first is lower: 8.71 ± 0.54 for the first, 9.67 ± 0.042 for the second.

“ATACTAAATATAAATTGTACTTTATTTATATTGAGA [XGTACX_site8699]” and “TTCCTCTTAAAATATACACACTGATTTAAGAAAAAA [CACACA_site5770]” are within error of each other in “gcPBM binding intensity (ln)” value: 8.52 ± 0.4 for the first, 8.23 ± 0.42 for the second.

ATATATAATACTACAGTGCAATATATTATATTTGTT and “TTGTGATTATTATATTGTACAATAAGTATTAAAGAA [XGTACX_site2753]” are within error of each other in “gcPBM binding intensity (ln)” value: 8.8 ± 0.39 for the first, 8.62 ± 0.46 for the second.

GCAAATCATGCTATGGTGCATATGTAAGATGAGCAT and “TTACATATTATACGAAGTACGTACAAATACTTATAT [XGTACX_site8598]” are within error of each other in “gcPBM binding intensity (ln)” value: 8.97 ± 0.4 for the first, 8.78 ± 0.44 for the second.

First: TTTTTTTTTTTTTTTTTTAAACACCTCAAAAAAAAA [CACACA_negctrl_site807]
Second: TTGCATTGTCCATGCGCACACACTACTAGAATAATA [CACACA_site3678]
The “gcPBM binding intensity (ln)” value of the first is lower: 7.91 ± 0.17 for the first, 9.22 ± 0.36 for the second.

“AATTATAAATTGGACACACACATAAAAAATATGTAC [CACACA_site221]” and “TAAAGGAAATAAAAAACATGCAAATATGAAATATAT [TGCATGCA_site745]” are within error of each other in “gcPBM binding intensity (ln)” value: 9.32 ± 0.41 for the first, 8.91 ± 0.52 for the second.

Compared with “ATACATAATAACTCCTGTACTTAAAAATGTATATAT [XGTACX_site1071]”, “TAAAAAAAAACATGTGCACACGTTTTATCTACATAA [CACACA_site2336]” is higher in “gcPBM binding intensity (ln)” value: 8.69 ± 0.45 for the first, 10.1 ± 0.32 for the second.

“TCATTTATTGAGGAATGTACACGTAAAATTTAATAA [XGTACX_site4086]” and “TTTTTTTTTTTTTTATGTACATATATATATTTTATT [XGTACX_site6915]” are within error of each other in “gcPBM binding intensity (ln)” value: 8.62 ± 0.4 for the first, 8.88 ± 0.49 for the second.

“ATATATATTATAAAATGTACAAATGTTATATAAAAT [XGTACX_site4750]” and “ATTTTTTTTTTTTTTTTCTTTTTTCTTCTTTTTTTT [CACACA_negctrl_site1223]” are within error of each other in “gcPBM binding intensity (ln)” value: 8.81 ± 0.46 for the first, 8.63 ± 0.66 for the second.

“ACCTTATTTAGTTATAGTACACAAAGTATTAAACAT [XGTACX_site8418]” and “GCGAATAATATGGACATACACACATATACATACATA [CACACA_site2115]” are within error of each other in “gcPBM binding intensity (ln)” value: 8.96 ± 0.3 for the first, 9.36 ± 0.4 for the second.

TATATATATTTTTGTGTGCACTATAATATGAAAATA and “TTTTTTTTTTTCTTCACACACAGTACTACTATTTAT [CACACA_site2409]” are within error of each other in “gcPBM binding intensity (ln)” value: 8.82 ± 0.4 for the first, 9.28 ± 0.44 for the second.

First: TTGTTTATTTGTAAAGCTAACAAGAAATGTGAATAT [CACACA_negctrl_site931]
Second: AACGAACACTATTACACACATACATACATATGTATG [CACACA_site1859]
The “gcPBM binding intensity (ln)” value of the first is lower: 8.58 ± 0.37 for the first, 9.34 ± 0.33 for the second.

“TTATTATTATAAAATTGTACTTGGTATATTAACATA [XGTACX_site5829]” and “TATACATAAAAATGATGTACATATAATATATATATA [XGTACX_site3863]” are within error of each other in “gcPBM binding intensity (ln)” value: 8.45 ± 0.42 for the first, 8.81 ± 0.49 for the second.

“AATGTATTATGTCTTCGTACACATAAATAAATAAAT [XGTACX_site4004]” and “ATATAAATATATTTTACACACAATGGAGAAAAAAAT [CACACA_site6450]” are within error of each other in “gcPBM binding intensity (ln)” value: 8.68 ± 0.44 for the first, 9.11 ± 0.48 for the second.

“ATCTTGAAGATTATTTGTACACAAAAGTTAAAATAT [XGTACX_site242]” and “GGATTAATATATTTACCACACACCCATTTCGATTTT [CACACA_site9200]” are within error of each other in “gcPBM binding intensity (ln)” value: 8.57 ± 0.49 for the first, 9.28 ± 0.35 for the second.

“TATATAATTATTTATTGTACACTCAAATCGATAAGG [XGTACX_site3216]” and “TATTTATAAATATAAACACACAACATTCTATGCATA [CACACA_site3243]” are within error of each other in “gcPBM binding intensity (ln)” value: 8.47 ± 0.4 for the first, 8.78 ± 0.43 for the second.

Compared with “TAAATCTATATCATCACACACACATACATAAATATA [CACACA_site6228]”, “TAGTATTGTAAAAAAAAAAAAGAAAAAAAAAAAAAA [CACACA_negctrl_site977]” is lower in “gcPBM binding intensity (ln)” value: 9.63 ± 0.26 for the first, 8.3 ± 0.49 for the second.

“AATATATGGTTCCTTGATATTAAATTCAATTTAATG [CACACA_negctrl_site71]” and “TGTGTATATGTGCAAAGTACAAAAAAGAAATTATTT [XGTACX_site7569]” are within error of each other in “gcPBM binding intensity (ln)” value: 8.53 ± 0.4 for the first, 8.88 ± 0.47 for the second.

“GAAAAAAAATCCAAGATGCACTATTATTACAAAAAT [GTGCAC_site9516]” and “ATGTAATATATGCGGAAATATATTCACAAGACGTCA [CACACA_negctrl_site373]” are within error of each other in “gcPBM binding intensity (ln)” value: 8.71 ± 0.51 for the first, 8.97 ± 0.4 for the second.

“GTCAAAAGTTTTTAAGGTACACTTATTTTATTATAA [XGTACX_site7004]” and “CACTAAACATATACACGTACATGCAACGGATTTTTT [XGTACX_site461]” are within error of each other in “gcPBM binding intensity (ln)” value: 8.62 ± 0.45 for the first, 8.98 ± 0.35 for the second.

“ACCTTTATTGTATGAACACACATAAGCTGATACATC [CACACA_site4028]” and “TGGATGTTAATATAGTGTACATTTATAAGTCAGTAT [XGTACX_site2949]” are within error of each other in “gcPBM binding intensity (ln)” value: 9.21 ± 0.33 for the first, 8.86 ± 0.42 for the second.

“GTGGAAAAAAATAATTGTACACAATAATAAATATAT [XGTACX_site2414]” and “TGTATATATCAATGTACACACATGCGTATGTTCGTT [CACACA_site7654]” are within error of each other in “gcPBM binding intensity (ln)” value: 8.87 ± 0.45 for the first, 9.41 ± 0.38 for the second.

“TATAAAAAAAATTGCACACATATTATACAGGACGAC [CACACA_site701]” and “AAAATATATATAACTTGTACATATACATACGTATAT [XGTACX_site4570]” are within error of each other in “gcPBM binding intensity (ln)” value: 9.29 ± 0.38 for the first, 8.88 ± 0.4 for the second.

“ATAATATATTTATGTTGTACAAGGAAAATTTTGAAA [XGTACX_site3472]” and “GAAATGGAAAAATATACATGCGCATATAAATTAATA [TGCATGCA_site834]” are within error of each other in “gcPBM binding intensity (ln)” value: 8.76 ± 0.42 for the first, 8.98 ± 0.44 for the second.

“TTTTTGATGAAATATTATTTTCCTGACTTGGATTAA [CACACA_negctrl_site148]” and “AACCATAAATAATTATGTACTAAAAAAAATATATAT [XGTACX_site3415]” are within error of each other in “gcPBM binding intensity (ln)” value: 8.44 ± 0.48 for the first, 8.64 ± 0.45 for the second.

“TGGAGGATAGTTCACAGTACCCAGAAACTCTACGGA [XGTACX_site2560]” and “TTATTTATGATATATACACACTAACATTATTTATCC [CACACA_site6720]” are within error of each other in “gcPBM binding intensity (ln)” value: 8.73 ± 0.55 for the first, 8.98 ± 0.51 for the second.

“TCTTATATATGCTTAAATATATTATATTTATTTGAA [CACACA_negctrl_site1757]” was tested, and the “gcPBM binding intensity (ln)” value was 8.46 ± 0.43.
